From the antibiotic and cytotoxicity screens of Wong et al. (2023) come the findings set out here.

The other results are listed elsewhere or left out.

One assay deals with HSkMC. Description: cytotoxicity call (relative viability < 0.9). The settings on record: 10 µM.
The subject of the next assay is HepG2. In words: cytotoxicity call (relative viability < 0.9). The following applies: 10 µM.
A further assay concerns S. aureus RN4220. Description: growth inhibition call (relative growth <= 0.2). The following applies: 50 µM.

As to `O=C(C1=C[C@H](c2csc3ccccc23)C[C@H](OCc2ccc(CO)cc2)O1)N1CCN(Cc2ccc3c(c2)OCO3)CC1`, the cytotoxicity call with HSkMC and with HepG2 was “inactive” each time. Further, the growth inhibition call with S. aureus RN4220 was “inactive”.
For the compound `C[C@@H]1CN([C@@H](C)CO)C(=O)c2cc(NC(=O)Nc3ccc(F)cc3)ccc2O[C@@H]1CN(C)C(=O)Nc1cccc2ccccc12`, the cytotoxicity call in the assay on HSkMC was “active”. In the assay on HepG2, the cytotoxicity call was “inactive”. For the same compound, the growth inhibition call in the assay with S. aureus RN4220 was “inactive”.
With `C[C@H](CO)N1C[C@H](C)[C@H](CN(C)Cc2ccc3c(c2)OCCN3C)OCc2cnnn2CCCC1=O`, the cytotoxicity call in the assay on HSkMC and with HepG2 was “inactive” throughout. The growth inhibition call in the assay on S. aureus RN4220 was “inactive”.
On to `COCC(=O)N1C[C@H](C)[C@@H](OC)CN(C)C(=O)c2ccc(NC(=O)c3cc(C)on3)cc2OC[C@H]1C`, for which the cytotoxicity call in the assay on HSkMC (human skeletal muscle cells) and in the assay with HepG2 was “inactive” in each case. The growth inhibition call in the assay with S. aureus RN4220 was “inactive”.
As to `O=C(C[C@H]1C[C@H]2c3cc(NC(=O)Nc4ccc(C(F)(F)F)cc4)ccc3O[C@H]2[C@H](CO)O1)NC1CCCCC1`, the cytotoxicity call with HSkMC and with HepG2 was “inactive” each time. The growth inhibition call with S. aureus RN4220 was “inactive”.
With `O=C(C1=C[C@@H](c2csc3ccccc23)C[C@@H](OCc2ccc(CO)cc2)O1)N1CCN(Cc2ccccc2)CC1`, the cytotoxicity call with HSkMC and in the assay on HepG2 was “inactive” each time. Further, the growth inhibition call in the assay with S. aureus RN4220 is “inactive”.
With `C[C@H](CO)N1C[C@H](C)[C@H](CN(C)Cc2ccccn2)Oc2ncc(C#Cc3cccc(F)c3)cc2C1=O`, the cytotoxicity call with HSkMC and in the assay with HepG2 was “inactive” in each case. The growth inhibition call in the assay with S. aureus RN4220 is “inactive”.
With `C[C@@H]1CN([C@@H](C)CO)C(=O)c2cc(NS(=O)(=O)c3ccc(F)cc3)ccc2O[C@H]1CN(C)Cc1ccncc1`, the cytotoxicity call with HSkMC and in the assay on HepG2 was “inactive” each time. Moreover, the growth inhibition call with S. aureus RN4220 is “inactive”.
In the case of `Nc1ccc(S(=O)(=O)Nc2nccs2)cc1`, the cytotoxicity call in the assay with HSkMC and with HepG2 was “inactive” in each case. Besides, the growth inhibition call with S. aureus RN4220 is “inactive”.
